± gives the standard deviation. The full ranking holds about 6,600 sequences; the median of “pre-steady-state target cleavage rate” is about 0.07, and the highest 2% start at about 0.72. The list shows a part of the results, in another mix than the full data.
System: MIWI (PIWIL1) piRISC loaded with Kctd7 piRNA (30 nt)
Test: pre-steady-state target cleavage rate (min^-1); MIWI and MILI are mouse PIWI proteins and EfPiwi is from a freshwater sponge; tags in brackets are library labels; higher = faster piRNA-guided slicing of the target
Conditions: guide: Kctd7 piRNA 5'p-UGUUAAUCUCUCAGAGAAGGUGACAGUGAU; auxiliary factor: 500 nM mouse GTSF1
Method: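 Cleave-'n-Seq: a library of target RNAs (target site embedded in constant flanks, ACAGCATTCCGCGTTAGTGATATCCG... 5' flank; DNA-blocked outside the site) at 0.1 nM was incubated with 1 nM active mouse MILI or MIWI piRISC (synthetic 5'-monophosphorylated piRNA guide) with or without 500 nM mouse GTSF1 at 33 °C for 1 min to 16 h. Uncleaved targets were sequenced and normalised to non-target controls, and the pooled three trials were fitted to a burst-and-steady-state model to give the pre-steady-state cleavage rate (min^-1; k3 is constrained to at most 1e-4). Sequence is the target site only; target names encode pairing extent (gX:gY) and contiguous / 1-mismatch / 2-mismatch / bulge geometry. Fits with R² ≤ 0 are excluded.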

Row | Sequence | pre-steady-state target cleavage rate
1 | UAGUCUCUCACCAUCUCUGAGAGAUUAACA | 0.0365 ± 0.0075
2 | UAGUCUCUCACCUUCUCAGAGAGAUUAACA | 0.0576 ± 0.0061
3 | UAGUGACUCACCUGUCUCUGAGAGAUUAACA | 0.106 ± 0.013
4 | UAGACAGUCACCUUCUCAGAGAGAUUAACA | 0.437 ± 0.026
5 | AUCACUGUCACCUUCUCUCACAGAUUAACA | 0.0162 ± 0.005
6 | UAGUGUGUCACCUUCUCACUGAGAUUAACA | 0.00629 ± 0.0042
7 | UAGACUGUACCUUCUCUGAGAGAUUAACA | 0.572 ± 0.044
8 | UUCACUGUCACCUUCUCUGAGAGAUUAACCA | 0.543 ± 0.031
9 | UUCACUGUCACCUUCUCACUGAGAUUUUGA | 0.00456 ± 0.0039
10 | AUCACUGUCACCUUUCUCUGAGAGAUUAACA | 0.599 ± 0.034
11 | UAGUGACACACCUUCUGAGAGAGAUUAACA | 0.00885 ± 0.0039
12 | AUCACUGUCACCUUCUCUGAGAGAUAUACA | 0.25 ± 0.032
13 | UACACUGUCACGUUCUCUGAGAGAUUAUCA | 0.188 ± 0.026
14 | UAGUGACAGUGGUUCUCUCAGAGAUUUACA | < 0.0001
15 | UAGACUCUCAGCUUCUCUGAGAGAUUAACA | 0.124 ± 0.013
16 | UUCACUGUCACCUUCUCUGAGUGAUUAUCA | 0.0392 ± 0.013
17 | UAGUCUGUCAUCUUCUCUGAGAGAUUAACA | 0.711 ± 0.036
18 | UAGUGACUCACCUUCUCUGUCUCUAAUUGA [g12:g23:cont:t1A] | < 0.0001
19 | UAGUCUGUCACCUUCUGUGAGAGAUUAUCA | 0.0153 ± 0.0063
20 | UAGUGAGUCACCUUCUCUGAGAGUUUAAGA | 0.342 ± 0.078
21 | UACACUGUCACCUUGUCUGAGAGAUUAAGA | 0.264 ± 0.054
22 | UAGUGACACACCUUCUCUGAGAGAUUAAUCA | 0.179 ± 0.024
23 | UAGUGUGUCACCUGCUCUGAGAGAUUAACA | 0.448 ± 0.027
24 | UAGUGUGUCACCUUCUCUGAGAGAUAUUCA | 0.194 ± 0.049

Row | Sequence | pre-steady-state target cleavage rate
25 | UAGAGUGUCACCUUCACUGAGAGAUUAACA | 0.409 ± 0.018
26 | AUGUCUGUCACCUUCUCUGAGAGAUAUUGA | 0.0171 ± 0.0071
27 | UAGUGUGACACCUUCUCUGAGAGAAUAACA | 0.203 ± 0.034
28 | AUCACUGUCACGUUCUCAGAGAGAUUAACA | 0.191 ± 0.013
29 | UACACUGUCACCUACUCUGAGAGAUAUUGA | 0.00929 ± 0.004
30 | UAGUGACACACCUUCUCUGACAGUUUAACA | 0.01 ± 0.0033
31 | UAGUGACACACCUACUGUGAGAGAUUAACA | 0.0443 ± 0.0072
32 | UACACUGUCACCUUCAGAGAGAGAUUAACA | 0.097 ± 0.036
33 | UAGUGAGCACCUUCUCUGAGAGAUUAACA | 0.573 ± 0.043
34 | UAGUGUGUCACCUUCUCUCAGAGAUAAACA | 0.076 ± 0.013
35 | UAGUGACUCACCUUCUCUGACAGAUAAACA | 0.0783 ± 0.011
36 | UAGUGACAGUGCUUCUCUGAGAGAUGUAACA | 0.00296 ± 0.0028
37 | UAGUCUGUCACCUUCUCUGAAGAUUAACA | 0.0128 ± 0.004
38 | UAGACUGUCACCUUCUCUGAGAGAUAACA | 0.0584 ± 0.012
39 | UUCACUGUCACCUUGUGUGAGAGAUUAACA | 0.169 ± 0.012
40 | UAGACUGUCACCCUCUCUGAGAGAUUAACA | 0.637 ± 0.038
41 | UAGUGAGUGACCUUCUCUGUGAGAUUAACA | 0.213 ± 0.016
42 | UAGUCACUCACCUUCUCUGAGAGAUUAACA | 0.632 ± 0.028
43 | UAGUGAGUGACCUUCUCUGAGAGAUUUUGA | 0.00862 ± 0.0036
44 | UAGUCUGUCUCCUUCUCUGUGAGAUUAACA | 0.207 ± 0.012
45 | AUCACUGUCACCUUCUCAGAGAGAAUAACA | 0.0929 ± 0.025
46 | UAGACUGUGACCUUCUCUGAGAGAUUUACA | 0.303 ± 0.043
47 | UACACUGUGACCUUCUGUGAGAGAUUAACA | 0.3 ± 0.022
48 | UAGUGACAGACCUACUCUGAGAGAUAAACA | 0.0108 ± 0.0035

Row | Sequence | pre-steady-state target cleavage rate
49 | UAGUGAGACACCUUCUCUGAGAGAUUUACA | 0.194 ± 0.025
50 | UUGACUGUCACCUUCUCUGACAGAUUAACA | 0.188 ± 0.021
51 | UAGUGACACACCUUCUCUGAGAGAGUAACA | 0.314 ± 0.058
52 | UAGUGACUCACCUUGUCUGAGAGAUAAACA | 0.227 ± 0.04
53 | UAGACUGUCACCUUCUCUGAGAGAUAUACA | 0.313 ± 0.044
54 | AUCACUGUCACCUUGUCUGAGAGAUUAACA | 0.527 ± 0.066
55 | UAGUGUGUCACCUUCUCUGAGACAUUAUCA | 0.0192 ± 0.0056
56 | UUCACUGUCACCUACUCUGAGACAUUAACA | 0.067 ± 0.0084
57 | AUCACUGUCACCUACUCUGAGAGAUAUUGA | 0.00742 ± 0.0034
58 | UUCACUGUCACGUUCUCUGAGAGAUAAACA | 0.271 ± 0.025
59 | UUCACUGUGACCUUCUCUGACAGAUUAACA | 0.349 ± 0.023
60 | UUCACUCACACCUUCUCUGAGAGAUUAAGA | 0.0618 ± 0.011
61 | UAGUGUGUCACCUUGAGUGAGAGAUUAACA | 0.00599 ± 0.0041
62 | UAGUGACUCACCUUCUCUGAGAGAUUGACA | 0.338 ± 0.049
63 | UAGUGAGUCACCUUGUCUGAGAGUUUAACA | 0.0617 ± 0.013
64 | UACACUGUCACCUUCUCUGACAGAUUAACA | 0.285 ± 0.028
65 | AUGACUGUCACCUUCUCUGAGUGAUUAACA | 0.0203 ± 0.0028
66 | UAGUGUGUCACCAUCUCUGAGUGAUUAACA | 0.0198 ± 0.0059
67 | UAGUCAGUCACCUUCUCUGUGAGAUUAACA | 0.304 ± 0.015
68 | UAGAUUGUCACCUUCUCUGAGAGAUUAACA | 0.619 ± 0.022
69 | UACACUGUCACCUUGUCUGAGACAUUAACA | 0.0935 ± 0.016
70 | UAGUGACUCACCUUCUCUGAGAGAAAUACA | 0.126 ± 0.028
71 | AACACUGUCACCUUCUCUGAGAGAUUUACA | 0.442 ± 0.058
72 | UAGUGACAGUGGAAGAGUGAGAGAUAAAGA | < 0.0001

— the supplement of paper PMC10338343
